In PubChem BioAssay AID651820 (National Center for Advancing Translational Sciences (NCATS), 2012):
Hit rate of the full screen: of about 340,000 compounds, about 12,000 (3.5%) were called active. Inconclusive means that the source gave no clear call. Such entries were picked first, then a sample of the others. Calls follow the shape of the dose curve; as a rule, active = well fitted inhibition curve with a large enough effect; inconclusive = small, poorly fitted or top-dose-only effect, or another doubt; inactive = no such curve, though single readings can be large or run the other way. No potency is given beside an inconclusive call; the fits are too rough.

assay: qHTS Assay for Inhibitors of Hepatitis C Virus (HCV); details: Huh7.5.1 HCVcc-Cre (HCVcc is cell-culture hepatitis C virus) infection, luciferase reporter, 44 h; activity change, negative = inhibition: at 41.8 µM (top of the series)
Method in brief: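 1,000 cells/well; 4 h culture; + compound; + HCVcc-Cre (~0.5 moi); 44 h; luciferase substrate, RT 15 min; read 15 sec.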
% is scaled to controls: 0 for no effect and ±100 for the full control effect; potency is read from the fitted curve at half-maximal effect; tags tell the direction and shape of the fitted curve.

Row | Structure (SMILES) | Potency | activity change, negative = inhibition
1 | O=C(COc1ccccc1)NC(=S)Nc1ccc2c3c(cccc13)CC2 | inactive | 
2 | COc1cc(Cl)c(C)cc1NC(=O)COC(=O)C1CC1C (configuration not stated) | inconclusive [inhibitor, partial curve] | 
3 | CCc1cccc(CC)c1NC(=O)CSc1nc2ccc(N3C(=O)C4C5C=CC(C5)C4C3=O)cc2s1 (configuration not stated) | active: 11.2 µM | 
4 | O=C(c1ccc([N+](=O)[O-])o1)N1CCN(c2nc3c(Cl)cccc3s2)CC1 | inconclusive [inhibitor, single point] | 
5 | O=C(NC(Cc1ccccc1)C(=O)O)/C(=C\c1ccc(Cl)cc1)NC(=O)c1ccco1 (configuration not stated) | inactive | 
6 | CCOC(=O)c1cccc(NC(=O)Nc2cc(OC)ccc2OC)c1 | active: 15.8 µM | 
7 | COc1ccc2cc(CN(Cc3ccco3)C(c3nnnn3C3CCCCC3)C(C)C)c(=O)[nH]c2c1 (configuration not stated) | inconclusive [inhibitor, partial curve] | 
8 | CC(=O)Oc1ccc(N(C(C)=O)S(=O)(=O)c2ccc(C)cc2)c2ccccc12 | inconclusive [inhibitor, single point] | 
9 | Cn1c(=O)c2ccccc2n2c(=S)[nH]nc12 | inactive | 
10 | Cc1ccc(S(=O)(=O)N2CCN(C(=O)COC(=O)c3cc([N+](=O)[O-])ccc3NCCO)CC2)c(C)c1 | inconclusive [inhibitor, full curve] | 
11 | CC(=O)N1CCN(Cc2nc3ccc(Cl)cc3n2CCO)CC1 | inactive | 
12 | CCSc1nnc2nc3[nH]c4c(C)cccc4c3nn12 | inactive | 
13 | COc1ccc(/C=N/NC(=S)Nc2cc(S(=O)(=O)N3CCOCC3)ccc2N2CCOCC2)cc1O | active: 10 µM | 
14 | CC1(C)C[C@@H]2C[C@@](C)(CN2C(=O)c2cc(COc3cccc(C(F)(F)F)c3)on2)C1 | active: 10 µM | 
15 | Cc1ccc(OCCC(=O)Nc2ccc3c(c2)OCCCO3)cc1 | inconclusive [inhibitor, single point] | 
16 | CCc1cc2c(=O)c(-c3ccc4c(c3)OCCO4)coc2c(CN2CCCCC2C)c1O (configuration not stated) | active: 6.31 µM | 
17 | Nc1cc(C(=O)OCC(=O)N2CCN(C(=O)COC(=O)c3ccc(Cl)c(N)c3)CC2)ccc1Cl | inactive | 
18 | Cc1cc(=O)oc2c3c(cc(OCC(=O)NCc4cccnc4)c12)OC(C)(C)CC3 | inconclusive [inhibitor, full curve] | 
19 | COc1ccc(C(=O)NCc2ccc(C)cc2)cc1S(=O)(=O)N1CCCc2ccccc21 | inconclusive [inhibitor, single point] | 
20 | COc1ccccc1N(C)S(=O)(=O)c1ccc(C(=O)N2CCC2)cc1 | inactive | 
21 | Cc1cccc(N2N=C(C(=O)OCC(=O)c3ccccc3)CCC2=O)c1 | inactive | 
22 | COc1ccccc1NC(=O)c1c(C)oc2c1CCCC2 | inconclusive [inhibitor, single point] | 
23 | CC(=O)Nc1ccc(-c2csc(NNC(=O)c3ccccc3)n2)cc1 | inactive | 
24 | CCOC(=O)N/N=C/c1cn(CCCOc2ccccc2)c2ccccc12 | inconclusive [inhibitor, partial curve] | 

Row | Structure (SMILES) | Potency | activity change, negative = inhibition
25 | COc1ccc(NC(=O)CC2C(=O)N(c3ccccc3)C(=O)N2Cc2ccco2)cc1 (configuration not stated) | inactive | 
26 | COc1ccc(OCC(=O)N2c3ccccc3CC2C)c([N+](=O)[O-])c1 (configuration not stated) |  | inconclusive: -34.9% [inhibitor]
27 | CC1=NN(C(=O)c2ccc(C)cc2)C(O)(C(F)(F)OC(F)(F)F)C1 (configuration not stated) | inactive | 
28 | O=C(C1CCC(=O)N(C2CC2)C1)N(CCO)Cc1ccccc1 (configuration not stated) | inactive | 
29 | CCN(CC)C(=O)C1CCCc2c1[nH]c1ccc(Cl)cc21 (configuration not stated) | inconclusive [inhibitor, full curve] | 
30 | Cc1ccnc(NC(=O)c2oc3ccccc3c2C)c1 | inconclusive [inhibitor, single point] | 
31 | C/C(=N/NC(=O)c1nnn(-c2nonc2N)c1COc1ccccc1)c1ccc(O)cc1 | inactive | 
32 | COc1ccccc1NC(=O)C1CCN(c2ncnc3c2nc2n3CCCCC2)CC1 | inconclusive [inhibitor, single point] | 
33 | Cc1cccc(CCNCc2c(C(=O)O)c(C)n(-c3ccccc3)c2C)c1 | inconclusive [inhibitor, single point] | 
34 | Cc1nc2ccccc2c2c1CC(C(C)(Cl)Br)O2 (configuration not stated) | active: 3.16 µM | 
35 | COc1ccc(CCNc2cc(-c3ccccc3)nc3ncnn23)cc1 | inconclusive [inhibitor, full curve, poor fit] | 
36 | CCCCN=C1NN=C(c2cc3ccccc3o2)CS1 | inactive | 
37 | Cc1ccc(S(=O)(=O)N2CCOCC2)cc1NC(=O)c1cc(-c2ccccn2)nc2ccccc12 | inconclusive [inhibitor, single point] | 
38 | O=Cc1cc(N=Nc2ccccc2Cl)ccc1O | inconclusive [inhibitor, partial curve] | 
39 | CN(Cc1ccccc1)C1=CC(=[N+]2CCCC2)CC(C)(C)C1 | inconclusive [inhibitor, partial curve, poor fit] | 
40 | CCCn1c(N)c(C(=O)CSc2nnc(-c3c[nH]c4ccccc34)n2C2CC2)c(=O)[nH]c1=O | inconclusive [inhibitor, partial curve] | 
41 | CC1CC(C)CN(S(=O)(=O)c2ccc(NC(=O)CCNC(=O)c3ccc([N+](=O)[O-])cc3)cc2)C1 (configuration not stated) | inconclusive [inhibitor, single point] | 
42 | O=C(CCNC(=O)c1ccccc1)Nc1nc2ccccc2s1 | inconclusive [inhibitor, single point] | 
43 | Cc1cc(OC(C)C(=O)N2CCN(c3ccc(F)cc3)CC2)c2c(C)c(C)c(=O)oc2c1 (configuration not stated) | inconclusive [inhibitor, single point] | 
44 | Cn1c(O)c(/C=C/C=Nc2ccccc2)c(=O)n(C)c1=S | inactive | 
45 | O=C(NC(=S)Nc1ccccc1Br)C1CCCCC1 | inconclusive [inhibitor, single point] | 
46 | COc1ccccc1-c1cnn2c(NC3CCCC3)cc(C)nc12 | inconclusive [inhibitor, full curve] | 
47 | C=CCn1cnc2c(nnn2-c2ccc(C)c(Cl)c2)c1=O | inconclusive [inhibitor, single point] | 
48 | CCN(CC)CCCN(C(C)=O)c1nc(-c2cc(OC)ccc2OC)cs1 | active: 6.31 µM | 

Row | Structure (SMILES) | Potency | activity change, negative = inhibition
49 | CC(C)C1Nc2ccc(S(N)(=O)=O)cc2C2C=CCC21 (configuration not stated) | active: 11.2 µM | 
50 | COc1cccc(N2CCN(C(=O)CCCCCNc3nc(=S)[nH]c4ccccc34)CC2)c1 | active: 11.2 µM | 
51 | NS(=O)(=O)c1ccc(NC2=CC(=O)C(=O)c3ccccc32)cc1 | active: 15.8 µM | 
52 | CCC(c1nnc(SCC(=O)Nc2ccc(Cl)cc2C(F)(F)F)n1C1CCCCC1)N(C)C (configuration not stated) | inactive | 
53 | O=C(CCNC(=O)c1ccco1)Nc1ccccc1N1CCOCC1 | inactive | 
54 | COc1ccc(CC(=O)Nc2nnc(C(C)(C)C)s2)cc1OC | inconclusive [inhibitor, single point] | 
55 | Cc1cc(NC(=O)CSc2nnnn2C)n(-c2ccccc2)n1 | inconclusive [inhibitor, partial curve] | 
56 | CN(C(=O)C(C)(C)C)c1ccc(OCC(=O)N2CCc3ccccc3C2)cc1 | inconclusive [inhibitor, partial curve] | 
57 | CCOC(=O)c1ccc(NC(=O)NCc2ccccc2)cc1 | inconclusive [inhibitor, partial curve] | 
58 | COC(=O)c1ccccc1NC(=O)C1CCN(S(=O)(=O)c2cc(OC)ccc2OC)CC1 | inconclusive [inhibitor, partial curve] | 
59 | Cn1c(O)c(N=NC(=O)c2cc(-c3cccs3)nc3ccccc23)c2ccccc21 | inconclusive [inhibitor, single point] | 
60 | COc1ccc(OCC(=O)N/N=C(\CCC(=O)O)c2cccs2)cc1 | inactive | 
61 | Nc1c(N2CCN(c3ccccc3)CC2)c2ccccc2oc1=O | inactive | 
62 | CCN(CC)C(=O)Cn1c(=O)n(Cc2ccccc2Cl)c2c1c(=O)n(C)c(=O)n2C | inconclusive [inhibitor, full curve] | 
63 | CCN1C(=O)C(CC(=O)Nc2ccc(OC)cc2)N(CCc2ccc(OC)cc2)C1=S (configuration not stated) | inconclusive [inhibitor, partial curve] | 
64 | CCN(C[C@H]1N[C@@](CC)(C(=O)OC)[C@H]2C(=O)N(C)C(=O)[C@@H]12)S(=O)(=O)c1ccc(OC(F)(F)F)cc1 | inconclusive [inhibitor, single point] | 
65 | Oc1ccc(-c2nnc(Nc3cccc(O)c3)c3ccccc23)cc1 | inconclusive [inhibitor, single point] | 
66 | CC1CCC(NC(=O)COC(=O)c2ccco2)CC1 (configuration not stated) | inactive | 
67 | CCOC(=O)c1sc(N)c(C(=O)OCC)c1COC(=O)C1CC(=O)N(Cc2ccco2)C1 (configuration not stated) | active: 12.6 µM | 
68 | CCN(CC)S(=O)(=O)c1cccc(NC(=O)CNC2CCCCCC2)c1 | inconclusive [inhibitor, single point] | 
69 | Cc1cc(NC(=O)C(C)SCC(=O)Nc2ccccc2N2CCCC2)no1 (configuration not stated) | inactive | 
70 | CC(C)(C)c1ccc(OCC(=O)NNC(=O)Cc2cccs2)cc1 | inconclusive [inhibitor, single point] | 
71 | Cc1ccccc1-n1c(SCc2c(C)noc2C)nnc1-c1ccncc1 | inconclusive [inhibitor, single point] | 
72 | COc1ccc(OC)c(N2Cc3cc(C)c(C)cc3C2)c1 | active: 22.4 µM | 
